In the supplement of paper PMC4967469:
IC50 is the fitted dose that halves viability relative to control wells, and lower means more sensitive; where the fit passes the top or lowest dose, that dose stands as a limit. AUC is the area under the same curve over the 256-fold range up to the top dose, as a fraction; the more sensitive the line, the further below 1. The top dose, if marked as inferred, comes from the curve model; the source does not state it.

Key:
Experiment in all cases: Viability of human cancer cell lines after 72 h of drug (GDSC screen)
Phenformin = compound: N=C(N)NC(=N)NCCc1ccccc1 [Phenformin]; settings: top dose 4000 µM; top dose inferred
Method: (§1)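 Human cancer cell lines in 384-well plates, medium with 10% serum, drug for 72 h over a 256-fold dose range (nine 2-fold or five 4-fold steps up to the top dose). Adherent lines were fixed and stained with the nucleic acid dye Syto60, suspension lines read with resazurin; signal relative to control wells, capped at 0 and 100%. One two-parameter sigmoid per drug and line, fitted in a mixed model over all curves with the slope shared within a line.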

EHT 1864 = compound: O=c1cc(CN2CCOCC2)occ1OCCCCCSc1ccnc2cc(C(F)(F)F)ccc12 [EHT 1864]; settings: top dose 10 µM; top dose inferred
Method: as §1

WHI-P97 = compound: COc1cc2ncnc(Nc3cc(Br)c(O)c(Br)c3)c2cc1OC [WHI-P97]; settings: top dose 10.24 µM; top dose inferred
Method: as §1

AG-014699 = compound: CNCc1ccc(-c2[nH]c3cc(F)cc4c3c2CCNC4=O)cc1 [AG-014699]; settings: top dose 5 µM; top dose inferred
Method: as §1

XL-184 = compound: COc1cc2nccc(Oc3ccc(NC(=O)C4(C(=O)Nc5ccc(F)cc5)CC4)cc3)c2cc1OC [XL-184]; settings: top dose 5.12 µM; top dose inferred
Method: as §1

QL-XI-92 = compound: C=CC(=O)Nc1cc(NC(=O)c2ccc(C)c(NC(=O)c3ccno3)c2)cc(C(F)(F)F)c1 [QL-XI-92]; settings: top dose 10.24 µM; top dose inferred
Method: as §1

Vinorelbine = compound: CCC1=C[C@@H]2CN(C1)Cc1c([nH]c3ccccc13)[C@@](C(=O)OC)(c1cc3c(cc1OC)N(C)[C@H]1[C@@](O)(C(=O)OC)[C@H](OC(C)=O)[C@]4(CC)C=CCN5CC[C@]31[C@@H]54)C2 [Vinorelbine]; settings: top dose 0.064 µM; top dose inferred
Method: as §1

NU-7441 = compound: O=c1cc(N2CCOCC2)oc2c(-c3cccc4c3sc3ccccc34)cccc12 [NU-7441]; settings: top dose 2 µM; top dose inferred
Method: as §1

Row | Cell Line | AUC (Phenformin) | IC50 (Phenformin) [µM] | AUC (EHT 1864) | IC50 (EHT 1864) [µM] | AUC (WHI-P97) | IC50 (WHI-P97) [µM] | AUC (AG-014699) | IC50 (AG-014699) [µM] | AUC (XL-184) | IC50 (XL-184) [µM] | AUC (QL-XI-92) | IC50 (QL-XI-92) [µM] | AUC (Vinorelbine) | IC50 (Vinorelbine) [µM] | AUC (NU-7441) | IC50 (NU-7441) [µM]
1 | NCI-H196 (small cell lung carcinoma, adherent) | 0.573 | 401 | 0.988 | > 10 | 0.986 | > 10.2 | 0.962 | > 5 | 0.941 | > 5.12 | 0.884 | > 10.2 | 0.947 | > 0.064 |  | 
2 | NCI-H292 (lung adenocarcinoma, adherent) | 0.261 | 44 | 0.917 | > 10 | 0.649 | 1.82 | 0.89 | > 5 | 0.824 | 3.95 | 0.979 | > 10.2 | 0.563 | 0.00617 |  | 
3 | NCI-H460 (large cell lung carcinoma, adherent) | 0.85 | 2590 | 0.964 | > 10 | 0.984 | > 10.2 | 0.814 | 2.39 |  |  | 0.989 | > 10.2 |  |  | 0.971 | > 2
4 | NCI-H838 (lung adenocarcinoma, adherent) | 0.749 | 1340 | 0.925 | > 10 | 0.981 | > 10.2 |  |  | 0.949 | > 5.12 | 0.985 | > 10.2 |  |  | 0.865 | 1.88
5 | NCI-H1993 (lung adenocarcinoma, adherent) | 0.792 | 2490 | 0.912 | > 10 | 0.862 | > 10.2 | 0.906 | > 5 |  |  | 0.983 | > 10.2 |  |  | 0.969 | > 2
6 | NCI-H2066 (small cell lung carcinoma, adherent) |  |  | 0.949 | > 10 |  |  | 0.98 | > 5 |  |  |  |  |  |  | 0.98 | > 2
7 | NCI-H2170 (lung squamous cell carcinoma, adherent) | 0.85 | 3240 | 0.98 | > 10 | 0.958 | > 10.2 | 0.972 | > 5 | 0.985 | > 5.12 | 0.986 | > 10.2 | 0.667 | 0.0119 |  | 
8 | OAW-28 (ovary, adherent) | 0.648 | 721 | 0.935 | > 10 | 0.945 | > 10.2 | 0.927 | > 5 | 0.876 | > 5.12 | 0.983 | > 10.2 | 0.695 | 0.0165 |  | 
9 | PC-3 (prostate, adherent) | 0.949 | > 4000 | 0.966 | > 10 | 0.946 | > 10.2 |  |  |  |  | 0.932 | > 10.2 |  |  | 0.899 | > 2
10 | PCI-38 (head and neck, adherent) | 0.858 | 3330 | 0.849 | 7.6 | 0.9 | > 10.2 | 0.949 | > 5 | 0.888 | > 5.12 | 0.984 | > 10.2 | 0.654 | 0.0107 |  | 
11 | PL18 (pancreas, adherent) | 0.852 | 3060 | 0.957 | > 10 | 0.988 | > 10.2 | 0.914 | > 5 | 0.961 | > 5.12 | 0.987 | > 10.2 | 0.75 | 0.0207 |  | 
12 | RD (rhabdomyosarcoma, adherent) | 0.934 | > 4000 | 0.953 | > 10 | 0.967 | > 10.2 | 0.95 | > 5 | 0.949 | > 5.12 | 0.916 | > 10.2 | 0.57 | 0.00635 |  | 
13 | RT-112 (bladder, adherent) | 0.929 | > 4000 | 0.98 | > 10 | 0.985 | > 10.2 | 0.962 | > 5 | 0.89 | > 5.12 | 0.983 | > 10.2 | 0.478 | 0.00346 |  | 
14 | SN12C (kidney, adherent) | 0.967 | > 4000 | 0.927 | > 10 | 0.984 | > 10.2 | 0.907 | > 5 | 0.981 | > 5.12 | 0.986 | > 10.2 | 0.761 | 0.0254 |  | 
15 | SW156 (kidney, adherent) | 0.894 | > 4000 | 0.852 | 9.12 | 0.959 | > 10.2 | 0.943 | > 5 | 0.941 | > 5.12 | 0.959 | > 10.2 | 0.931 | > 0.064 |  | 
16 | SW837 (large intestine, adherent) | 0.592 | 484 | 0.971 | > 10 | 0.962 | > 10.2 | 0.977 | > 5 | 0.936 | > 5.12 | 0.972 | > 10.2 | 0.951 | > 0.064 |  | 
17 | SW1088 (glioma, adherent) | 0.841 | > 4000 | 0.965 | > 10 | 0.959 | > 10.2 | 0.98 | > 5 | 0.905 | > 5.12 | 0.966 | > 10.2 | 0.797 | 0.0411 |  | 
18 | SW1463 (large intestine, adherent) | 0.603 | 588 | 0.86 | > 10 | 0.973 | > 10.2 | 0.978 | > 5 | 0.978 | > 5.12 | 0.978 | > 10.2 | 0.9 | > 0.064 |  | 
19 | T-24 (bladder, adherent) | 0.985 | > 4000 | 0.904 | > 10 | 0.957 | > 10.2 | 0.962 | > 5 | 0.962 | > 5.12 | 0.967 | > 10.2 | 0.926 | > 0.064 |  | 
